This is an account of results in US20220267410A1 (UNIVERSITAT STUTTGART, published 2022).

As usually defined, the EC50 is the concentration giving half of the maximal effect. Read a low EC50 as greater potency.

Assay [1] has as its target T1, human TNFR2 on stably transfected cells (MEF-TNFR2, HeLa-TNF-R2) (human, UniProt P20333 23-461).
T1 construct: whole, on cells; Same receptor on two transfected cell lines; the cell line is named under assay; also called human TNF receptor 2
T1 sequence (looked up): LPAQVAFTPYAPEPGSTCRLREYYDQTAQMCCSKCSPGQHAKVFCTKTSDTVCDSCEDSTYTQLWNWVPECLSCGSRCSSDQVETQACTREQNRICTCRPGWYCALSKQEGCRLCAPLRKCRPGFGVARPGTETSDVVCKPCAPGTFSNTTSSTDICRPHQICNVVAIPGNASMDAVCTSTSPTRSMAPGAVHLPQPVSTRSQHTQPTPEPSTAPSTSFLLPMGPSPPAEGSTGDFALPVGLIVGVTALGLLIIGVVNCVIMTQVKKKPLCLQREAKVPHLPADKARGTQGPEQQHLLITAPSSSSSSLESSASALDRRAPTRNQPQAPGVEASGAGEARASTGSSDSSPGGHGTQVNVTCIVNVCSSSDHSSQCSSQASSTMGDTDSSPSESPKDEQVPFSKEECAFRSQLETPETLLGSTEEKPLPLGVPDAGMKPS
The assay can be described thus: flow cytometry on HeLa-TNF-R2 cells after 8 days at 37 °C in 50% human blood plasma, experiment 1. The protocol:
(§1) FIG. 10: Stability of scTNFR2-Fc(Δab) complexes in human blood plasma. The integrity of the scTNFR2-Fc(Δab) complexes after incubation for 0 days (control), 3 days or 8 days in 50% human blood plasma at 37° C. was tested by their ability to bind HeLa-TNF-R2 cells in flow cytometry. The percentage of intact protein (mean±S. D., n=4) was calculated from reciprocals of the EC₅₀ values which were normalized to the non-incubated control (100%). Statistical analysis was performed by two-way ANOVA and Dunnett's post-test. Results were summarized as ****p <0.0001; ***p <0.001; **p <0.01; *p <0.05; n. s.=not significant.
(§2) The stability of the scTNFR2-Fc(Δab) proteins in human blood plasma after incubation periods of 3 and 8 days at 37° C. was assayed by binding of protein samples to HeLa cells stably overexpressing TNF-R2 (HeLa-TNF-R2, Richter et al., 2012, Mol. Cell Biol. 32, 2515-2529). […] After incubation, samples were stored at −80° C. and thawed prior testing the protein integrity by binding to HeLa-TNF-R2 in flow cytometry. […] Bound protein was detected with goat anti-human IgG Fcγ fragment specific-R-phycoerythrin antibody (Jackson ImmunoResearch, 1:500) for 1 h at 4° C. After two final washing steps with FACS buffer, cells were analyzed with a MACSQuant® VYB flow cytometer equipped with a 586/15 nm filter for detection of phycoerythrin.

Assay [2] deals with T2, human TNFR1 on stably transfected mouse embryonic fibroblasts (MEF-TNFR1) (human, UniProt P19438 30-455).
T2 construct: whole, on cells
T2 sequence (looked up): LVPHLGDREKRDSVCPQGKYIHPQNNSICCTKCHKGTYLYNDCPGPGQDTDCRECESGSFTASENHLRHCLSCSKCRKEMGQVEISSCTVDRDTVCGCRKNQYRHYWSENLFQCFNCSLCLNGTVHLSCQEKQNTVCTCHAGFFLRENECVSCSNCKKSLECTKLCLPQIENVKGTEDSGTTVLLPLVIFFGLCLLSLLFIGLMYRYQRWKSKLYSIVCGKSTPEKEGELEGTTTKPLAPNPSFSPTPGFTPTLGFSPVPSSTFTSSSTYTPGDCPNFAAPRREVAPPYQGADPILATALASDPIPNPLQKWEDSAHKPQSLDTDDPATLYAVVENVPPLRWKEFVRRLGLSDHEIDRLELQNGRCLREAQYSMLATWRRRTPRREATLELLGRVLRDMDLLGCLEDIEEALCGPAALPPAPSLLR
Description: flow cytometry on MEF-TNFR1 cells. The protocol: FIG. 7: TNF-R2 selective binding of scTNFR2-Fc(Δab) complexes on MEF-TNF-R2. Mouse embryonic fibroblasts stably transfected with either human TNF-R2 (MEF-TNF-R2) or human TNF-R1 (MEF-TNF-R1) were tested for binding of the scTNFR2-Fc(Δab) complexes by flow cytometry. The scTNFR2-Fc(Δab) complexes bound selectively to MEF-TNF-R2, whereas binding to MEF-TNF-R1 could not be detected (n=1).
The binding of the scTNFR2-Fc(Δab) complexes to mouse embryonic fibroblasts (MEFs) stably transfected with human TNFR1 (MEF-TNFR1) or human TNFR2 (MEF-TNFR2) (Krippner-Heidenreich et al., 2002, J. Biol. Chem. 277, 44155-44163) was analyzed by flow cytometry. To this, cells were trypsinized and washed once in ice-cold FACS buffer (PBS, 2% FBS, 0.05% sodium azide). 200,000 cells per sample were incubated with serially diluted scTNFR2-Fc(Δab) complexes in 100 μl FACS buffer for 2 h at 4° C. Next, unbound proteins were removed by two washing steps with FACS buffer, followed by detection with Anti-Human IgG (γ-chain specific)-R-Phycoerythrin antibody (Sigma-Aldrich, 1:500) for 1 h at 4° C. After two final washing steps with FACS buffer, cells were analyzed with a MACSQuant® Analyzer 10 equipped with a 585/40 nm filter.

The target of assay [3] is T1, human TNFR2 on stably transfected cells …. Description: flow cytometry on HeLa-TNF-R2 cells after 0 days at 37 °C in 50% human blood plasma (control), experiment 2. The protocol:
as §1, §2
On the technique in general: A flow cytometer gives signals particle by particle.

Assay [4] shares this target. The assay can be described thus: flow cytometry on HeLa-TNF-R2 cells after 3 days at 37 °C in 50% human blood plasma, experiment 2. The protocol: as §1, §2
For assay [5] the target is unchanged. The assay can be described thus: flow cytometry on HeLa-TNF-R2 cells after 8 days at 37 °C in 50% human blood plasma, experiment 3. The protocol:
as §1, §2

B1: scTNFR2(118)-Fc(Δab) (745) (Fc fusion)
chain: [about 150 residues not given here]GGGGSSSRTPSDKPVAHVVANPQAEGQLQWLNRRANALLANGVELRDNQLVVPSEGLYLIYSQVLFKGQGCPSTHVLLTHTISRIAVSYQTKVNLLSAIKSPCQRETPEGAEAKPWYEPIYLGGVFQLEKGDRLSAEINRPDYLNFRESGQVYFGIIALGGGGSSSRTPSDKPVAHVVANPQAEGQLQWLNRRANALLANGVELRDNQLVVPSEGLYLIYSQVLFKGQGCPSTHVLLTHTISRIAVSYQTKVNLLSAIKSPCQRETPEGAEAKPWYEPIYLGGVFQLEKGDRLSAEINRPDYLNFRESGQVYFGIIALGGSGGGGSGGDKTHTCPPCPAPPVAGPSVFLFPPKPKDTLMISRTPEVTCVVVDVSHEDPEVKFNWYVDGVEVHNAKTKPREEQYNSTYRVVSVLTVLHQDWLNGKEYKCKVSNKGLPSSIEKTISKAKGQPREPQVYTLPPSRDELTKNQVSLTCLVKGFYPSDIAVEWESNGQPENNYKTTPPVLDSDGSFFLYSKLTVDKSRWQQGNVFSCSVMHEALHNHYTQKSLSLSPGK
notes: Hexavalent dimer through the Fc(Δab) region; no His tag
With B1, the EC50 in assay [1] amounted to 0.082 nM; in assay [3], 0.0527 nM; in assay [4] it was 0.0685 nM; in assay [5], 0.0767 nM. Besides, the binding result in assay [2] was “no binding”.

B2: scTNFR2(139)-Fc(Δab) (744) (Fc fusion)
chain: [about 150 residues not given here]GGGGSDKPVAHVVANPQAEGQLQWLNRRANALLANGVELRDNQLVVPSEGLYLIYSQVLFKGQGCPSTHVLLTHTISRIAVSYQTKVNLLSAIKSPCQRETPEGAEAKPWYEPIYLGGVFQLEKGDRLSAEINRPDYLNFRESGQVYFGIIALGGGGSDKPVAHVVANPQAEGQLQWLNRRANALLANGVELRDNQLVVPSEGLYLIYSQVLFKGQGCPSTHVLLTHTISRIAVSYQTKVNLLSAIKSPCQRETPEGAEAKPWYEPIYLGGVFQLEKGDRLSAEINRPDYLNFRESGQVYFGIIALGGSGGGGSGGDKTHTCPPCPAPPVAGPSVFLFPPKPKDTLMISRTPEVTCVVVDVSHEDPEVKFNWYVDGVEVHNAKTKPREEQYNSTYRVVSVLTVLHQDWLNGKEYKCKVSNKGLPSSIEKTISKAKGQPREPQVYTLPPSRDELTKNQVSLTCLVKGFYPSDIAVEWESNGQPENNYKTTPPVLDSDGSFFLYSKLTVDKSRWQQGNVFSCSVMHEALHNHYTQKSLSLSPGK
notes: as for B1
On to B2, for which the EC50 in assay [1] stood at 0.0576 nM; in assay [3] it was 0.0618 nM; in assay [4] it was 0.0598 nM; in assay [5], 0.0746 nM. The binding result in assay [2] is reported as “no binding”.
